The record followed here is patent publication US7619094B2, “Ketoamides with cyclic P4's as inhibitors of NS3 serine protease of hepatitis C virus” (Schering Corporation, priority 2004, dated 2009).

The target in the first test is Recombinant heterodimeric HCV NS3/NS4A protease (strain 1a) (Hepatitis C virus genotype 1a, UniProt P27958). Kind of test: HCV continuous assay (spectrophotometric HCV NS3/NS4A serine protease inhibition assay). The note with it: Table 1; ranges of Ki* values in HCV continuous assay. The class given is biochemical, HCV (strain 1a).
`C=CCNC(=O)C(=O)C(CCCC)NC(=O)[C@@H]1[C@@H]2[C@H](CN1C(=O)[C@@H](NC(=O)N[C@H](CN1CCCN(C)S1(=O)=O)C(C)(C)C)C1CCCCC1)C2(C)C` (stereo partly shown) [Compound 5240]: the Ki (in general, the equilibrium dissociation constant of an inhibitor or competing ligand from its target) was no more than 50 nM.

In the case of `C=CCNC(=O)C(=O)C(CCC)NC(=O)[C@@H]1[C@@H]2[C@H](CN1C(=O)[C@@H](NC(=O)N[C@H](CN1CCCN(C)S1(=O)=O)C(C)(C)C)C1CCCCC1)C2(C)C` (stereo partly shown) [Compound 5241], the Ki is no more than 50 nM.

As to `C#CCCC(NC(=O)[C@@H]1[C@@H]2[C@H](CN1C(=O)[C@@H](NC(=O)N[C@H](CN1CCCN(C)S1(=O)=O)C(C)(C)C)C1CCCCC1)C2(C)C)C(=O)C(=O)NCC=C` (stereo partly shown) [Compound 5242], the Ki is no more than 50 nM.

Turning to `CN1CCCN(C[C@@H](NC(=O)N[C@H](C(=O)N2C[C@H]3[C@@H]([C@H]2C(=O)NC(CC2CC2)C(=O)C(N)=O)C3(C)C)C2CCCCC2)C(C)(C)C)S1(=O)=O` (stereo partly shown) [Compound 5243], the inhibition constant Ki is no more than 50 nM.

On to `CN1CCCN(C[C@@H](NC(=O)N[C@H](C(=O)N2C[C@H]3[C@@H]([C@H]2C(=O)NC(CC2CCC2)C(=O)C(N)=O)C3(C)C)C2CCCCC2)C(C)(C)C)S1(=O)=O` (stereo partly shown) [Compound 5244], for which the Ki was no more than 50 nM.

For `CCCCC(NC(=O)[C@@H]1[C@@H]2[C@H](CN1C(=O)[C@@H](NC(=O)N[C@H](CN1Cc3sccc3S1(=O)=O)C(C)(C)C)C1CCCCC1)C2(C)C)C(=O)C(=O)NCC` (stereo partly shown) [Compound 5245], the Ki is no more than 50 nM.

`C=CCNC(=O)C(=O)C(CCCC)NC(=O)[C@@H]1[C@@H]2[C@H](CN1C(=O)[C@@H](NC(=O)N[C@H](CN1Cc3ccccc3S1(=O)=O)C(C)(C)C)C(C)(C)C)C2(Cl)Cl` (stereo partly shown) [Compound 5246]: the Ki was no more than 50 nM.

Regarding `C=CCNC(=O)C(=O)C(CCCC)NC(=O)[C@@H]1[C@@H]2[C@H](CN1C(=O)[C@@H](NC(=O)N[C@H](CN1CCCNS1(=O)=O)C(C)(C)C)C(C)(C)C)C2(Cl)Cl` (stereo partly shown) [Compound 5247], the Ki was no more than 50 nM.

For `C=CCNC(=O)C(=O)C(CCCC)NC(=O)[C@@H]1[C@@H]2[C@H](CN1C(=O)[C@@H](NC(=O)N[C@H](CN1Cc3ccccc3S1(=O)=O)C(C)(C)C)C1CCCCC1)C2(C)C` (stereo partly shown) [Compound 5248], the inhibition constant (Ki) was no more than 50 nM.

Turning to `C=CCNC(=O)C(=O)C(CC1CC1)NC(=O)[C@@H]1[C@@H]2[C@H](CN1C(=O)[C@@H](NC(=O)N[C@H](CN1Cc3ccccc3S1(=O)=O)C(C)(C)C)C1CCCCC1)C2(C)C` (stereo partly shown) [Compound 5249], the Ki was no more than 50 nM.

Turning to `C=CCNC(=O)C(=O)C(CCC)NC(=O)[C@@H]1[C@@H]2[C@H](CN1C(=O)[C@@H](NC(=O)N[C@H](CN1Cc3ccccc3S1(=O)=O)C(C)(C)C)C1CCCCC1)C2(C)C` (stereo partly shown) [Compound 5250], the inhibition constant (Ki) is no more than 50 nM.

With `CCCCC(NC(=O)[C@@H]1[C@@H]2[C@H](CN1C(=O)[C@@H](NC(=O)N[C@H](CN1Cc3ccccc3S1(=O)=O)C(C)(C)C)C1CCCCC1)C2(C)C)C(=O)C(=O)NCC` (stereo partly shown) [Compound 5251], the Ki was no more than 50 nM.

As to `C=CCNC(=O)C(=O)C(CCCC)NC(=O)[C@@H]1[C@@H]2[C@H](CN1C(=O)[C@@H](NC(=O)N[C@H](CN1Cc3sccc3S1(=O)=O)C(C)(C)C)C(C)(C)C)C2(Cl)Cl` (stereo partly shown) [Compound 5252], the inhibition constant Ki is no more than 50 nM.

Turning to `CC(C)(C)[C@@H](CN1Cc2ccccc2S1(=O)=O)NC(=O)N[C@H](C(=O)N1C[C@H]2[C@@H]([C@H]1C(=O)NC(CC1CC1)C(=O)C(N)=O)C2(C)C)C1CCCCC1` (stereo partly shown) [Compound 5253], the Ki was no more than 50 nM.

In the case of `CC(C)(C)[C@@H](CN1Cc2ccccc2S1(=O)=O)NC(=O)N[C@H](C(=O)N1C[C@H]2[C@@H]([C@H]1C(=O)NC(CC1CCC1)C(=O)C(N)=O)C2(C)C)C1CCCCC1` (stereo partly shown) [Compound 5254], the Ki was no more than 50 nM.

On to `C=CCNC(=O)C(=O)C(CCC)NC(=O)[C@@H]1[C@@H]2[C@H](CN1C(=O)[C@@H](NC(=O)N[C@H](CN1Cc3sccc3S1(=O)=O)C(C)(C)C)C1(C)CCCCC1)C2(C)C` (stereo partly shown) [Compound 5255], for which the inhibitory constant (Ki) is no more than 50 nM.

On to `C=CCNC(=O)C(=O)C(CCCC)NC(=O)[C@@H]1[C@@H]2[C@H](CN1C(=O)[C@@H](NC(=O)N[C@H](CN1Cc3sccc3S1(=O)=O)C(C)(C)C)C1(C)CCCCC1)C2(C)C` (stereo partly shown) [Compound 5256], for which the Ki is no more than 50 nM.

Take `C=CCNC(=O)C(=O)C(CC1CC1)NC(=O)[C@@H]1[C@@H]2[C@H](CN1C(=O)[C@@H](NC(=O)N[C@H](CN1Cc3ccccc3S1(=O)=O)C(C)(C)C)C1(C)CCCCC1)C2(C)C` (stereo partly shown) [Compound 5257]: the Ki was no more than 50 nM.

As for `C=CCNC(=O)C(=O)C(CCCC)NC(=O)[C@@H]1[C@@H]2[C@H](CN1C(=O)[C@@H](NC(=O)N[C@H](CN1Cc3ccccc3S1(=O)=O)C(C)(C)C)C1(C)CCCCC1)C2(C)C` (stereo partly shown) [Compound 5258], the Ki is no more than 50 nM.

Regarding `CCCCC(NC(=O)[C@@H]1[C@@H]2[C@H](CN1C(=O)[C@@H](NC(=O)N[C@H](CN1Cc3sccc3S1(=O)=O)C(C)(C)C)C(C)(C)C)C2(C)C)C(=O)C(=O)NCC` (stereo partly shown) [Compound 5259], the Ki is no more than 50 nM.

Consider `C=CCNC(=O)C(=O)C(CCC)NC(=O)[C@@H]1[C@@H]2[C@H](CN1C(=O)[C@@H](NC(=O)N[C@H](CN1Cc3ccccc3S1(=O)=O)C(C)(C)C)C1(C)CCCCC1)C2(C)C` (stereo partly shown) [Compound 5260], for which the Ki was no more than 50 nM.

`C=CCNC(=O)C(=O)C(CC1CC1)NC(=O)[C@@H]1[C@@H]2[C@H](CN1C(=O)[C@@H](NC(=O)N[C@H](CN1Cc3sccc3S1(=O)=O)C(C)(C)C)C1(C)CCCCC1)C2(C)C` (stereo partly shown) [Compound 5261]: the inhibition constant (Ki) was no more than 50 nM.

`C=CCNC(=O)C(=O)C(CC1CCC1)NC(=O)[C@@H]1[C@@H]2[C@H](CN1C(=O)[C@@H](NC(=O)N[C@H](CN1Cc3sccc3S1(=O)=O)C(C)(C)C)C(C)(C)C)C2(C)C` (stereo partly shown) [Compound 5262]: the Ki was no more than 50 nM.

As for `C=CCNC(=O)C(=O)C(CC1CCC1)NC(=O)[C@@H]1[C@@H]2[C@H](CN1C(=O)[C@@H](NC(=O)N[C@H](CN1Cc3ccccc3S1(=O)=O)C(C)(C)C)C1CCCCC1)C2(C)C` (stereo partly shown) [Compound 5263], the Ki was no more than 50 nM.

Still in this test, the particulars now being: Table 2; ranges of Ki* values in HCV continuous assay.
With `CC(C)[C@@H](Cn1ccccc1=O)NC(=O)N[C@H](C(=O)N1C[C@H]2[C@@H]([C@H]1C(=O)NC(CC1CC1)C(=O)C(N)=O)C2(C)C)C(C)(C)C` (stereo partly shown) [Compound 5603], the Ki is no more than 50 nM.

For `CC(C)[C@@H](Cn1ccccc1=O)NC(=O)N[C@H](C(=O)N1C[C@H]2[C@@H]([C@H]1C(=O)NC(CC1CCC1)C(=O)C(N)=O)C2(C)C)C(C)(C)C` (stereo partly shown) [Compound 5604], the inhibitory constant (Ki) is no more than 50 nM.

Regarding `C=CCNC(=O)C(=O)C(CCC)NC(=O)[C@@H]1[C@@H]2[C@H](CN1C(=O)[C@@H](NC(=O)N[C@H](Cn1ccccc1=O)C(C)C)C(C)(C)C)C2(C)C` (stereo partly shown) [Compound 5605], the Ki was no more than 50 nM.

As for `C=CCNC(=O)C(=O)C(CCC(F)(F)F)NC(=O)[C@@H]1[C@@H]2[C@H](CN1C(=O)[C@@H](NC(=O)N[C@H](Cn1ccccc1=O)C(C)C)C(C)(C)C)C2(C)C` (stereo partly shown) [Compound 5606], the Ki is no more than 50 nM.

In the case of `C=CCNC(=O)C(=O)C(CC1CC1)NC(=O)[C@@H]1[C@@H]2[C@H](CN1C(=O)[C@@H](NC(=O)N[C@H](Cn1ccccc1=O)C(C)C)C(C)(C)C)C2(C)C` (stereo partly shown) [Compound 5607], the Ki was greater than 50 nM.

Take `C=CCNC(=O)C(=O)C(CC1CC1)NC(=O)[C@@H]1[C@@H]2[C@H](CN1C(=O)[C@@H](NC(=O)N[C@H](CN1CCCCC1=O)C(C)C)C(C)(C)C)C2(C)C` (stereo partly shown) [Compound 5608]: the Ki is greater than 50 nM.

Take `C=CCNC(=O)C(=O)C(CCCC)NC(=O)[C@@H]1[C@@H]2[C@H](CN1C(=O)[C@@H](NC(=O)N[C@H](CN1CCCCC1=O)C(C)C)C(C)(C)C)C2(C)C` (stereo partly shown) [Compound 5609]: the Ki is greater than 50 nM.

On to `C=CCNC(=O)C(=O)C(CCCC)NC(=O)[C@@H]1[C@@H]2[C@H](CN1C(=O)[C@@H](NC(=O)N[C@H](Cn1ccccc1=O)C(C)C)C(C)(C)C)C2(C)C` (stereo partly shown) [Compound 5610], for which the Ki is no more than 50 nM.

Turning to `CC(C)[C@@H](CN1CCOC1=O)NC(=O)N[C@H](C(=O)N1C[C@H]2[C@@H]([C@H]1C(=O)NC(CC1CC1)C(=O)C(N)=O)C2(C)C)C(C)(C)C` (stereo partly shown) [Compound 5611], the Ki is no more than 50 nM.

Turning to `CC(C)[C@@H](CN1CCOC1=O)NC(=O)N[C@H](C(=O)N1C[C@H]2[C@@H]([C@H]1C(=O)NC(CC1CCC1)C(=O)C(N)=O)C2(C)C)C(C)(C)C` (stereo partly shown) [Compound 5612], the Ki is no more than 50 nM.

As for `C=CCNC(=O)C(=O)C(CCCC)NC(=O)[C@@H]1[C@@H]2[C@H](CN1C(=O)[C@@H](NC(=O)N[C@H](CN1C(=O)c3ccccc3C1=O)C(C)(C)C)C(C)(C)C)C2(C)C` (stereo partly shown) [Compound 5613], the Ki is no more than 50 nM.

For `C=CCNC(=O)C(=O)C(CC1CCC1)NC(=O)[C@@H]1[C@@H]2[C@H](CN1C(=O)[C@@H](NC(=O)N[C@H](CN1CCCCC1=O)C(C)C)C(C)(C)C)C2(C)C` (stereo partly shown) [Compound 5614], the Ki was no more than 50 nM.

Regarding `C=CCNC(=O)C(=O)C(CCC(F)(F)F)NC(=O)[C@@H]1[C@@H]2[C@H](CN1C(=O)[C@@H](NC(=O)N[C@H](CN1CCOC1=O)C(C)C)C(C)(C)C)C2(C)C` (stereo partly shown) [Compound 5616], the Ki was no more than 50 nM.

Regarding `C=CCNC(=O)C(=O)C(CCCC)NC(=O)[C@@H]1[C@@H]2[C@H](CN1C(=O)[C@@H](NC(=O)N[C@H](CN1CCOC1=O)C(C)C)C(C)(C)C)C2(C)C` (stereo partly shown) [Compound 5617], the inhibitory constant (Ki) was no more than 50 nM.

On to `CC(C)(C)[C@H](NC(=O)N[C@H](CN1C(=O)c2ccccc2C1=O)C(C)(C)C)C(=O)N1C[C@H]2[C@@H]([C@H]1C(=O)NC(CC1CC1)C(=O)C(N)=O)C2(C)C` (stereo partly shown) [Compound 5618], for which the Ki is no more than 50 nM.

`C=CCNC(=O)C(=O)C(CCC)NC(=O)[C@@H]1[C@@H]2[C@H](CN1C(=O)[C@@H](NC(=O)N[C@H](CN1C(=O)c3ccccc3C1=O)C(C)(C)C)C(C)(C)C)C2(C)C` (stereo partly shown) [Compound 5619]: the Ki was no more than 50 nM.

For the compound `C=CCNC(=O)C(=O)C(CCC)NC(=O)[C@@H]1[C@@H]2[C@H](CN1C(=O)[C@@H](NC(=O)N[C@H](CN1CCCC1=O)C(C)(C)C)C(C)(C)C)C2(C)C` (stereo partly shown) [Compound 5620], the Ki is no more than 50 nM.

Consider `C=CCNC(=O)C(=O)C(CCCC)NC(=O)[C@@H]1[C@@H]2[C@H](CN1C(=O)[C@@H](NC(=O)N[C@H](CN1CCCC1=O)C(C)(C)C)C(C)(C)C)C2(C)C` (stereo partly shown) [Compound 5621], for which the Ki was greater than 50 nM.

The test is the same for the next values; noted with them: Table 4; Ki* values.
As for `C=CCNC(=O)C(=O)C(CCC)NC(=O)[C@@H]1[C@@H]2[C@H](CN1C(=O)[C@@H](NC(=O)N[C@H](CN1C(=O)c3ccccc3C1=O)C(C)(C)C)C(C)(C)C)C2(C)C` (stereo partly shown) [Compound 5619], the Ki was found to be 11 nM.
